Reference: the supplement of paper PMC3334620
Over roughly 33,000 sequences, “E-score (-0.5 to 0.5)” has its median near -0.011; the highest 2% begin near 0.28. Some of the results follow.

The sequences below were run against T1, Gcr1 (UniProt P07261) (assay: PBM E-score (8-mer binding enrichment) (E-score (-0.5 to 0.5)); higher = stronger / more preferred TF binding; most listed sequences are background and not binding sites). Conditions: protein concentration: 100 nM; construct: GST-full length.
T1 sequence: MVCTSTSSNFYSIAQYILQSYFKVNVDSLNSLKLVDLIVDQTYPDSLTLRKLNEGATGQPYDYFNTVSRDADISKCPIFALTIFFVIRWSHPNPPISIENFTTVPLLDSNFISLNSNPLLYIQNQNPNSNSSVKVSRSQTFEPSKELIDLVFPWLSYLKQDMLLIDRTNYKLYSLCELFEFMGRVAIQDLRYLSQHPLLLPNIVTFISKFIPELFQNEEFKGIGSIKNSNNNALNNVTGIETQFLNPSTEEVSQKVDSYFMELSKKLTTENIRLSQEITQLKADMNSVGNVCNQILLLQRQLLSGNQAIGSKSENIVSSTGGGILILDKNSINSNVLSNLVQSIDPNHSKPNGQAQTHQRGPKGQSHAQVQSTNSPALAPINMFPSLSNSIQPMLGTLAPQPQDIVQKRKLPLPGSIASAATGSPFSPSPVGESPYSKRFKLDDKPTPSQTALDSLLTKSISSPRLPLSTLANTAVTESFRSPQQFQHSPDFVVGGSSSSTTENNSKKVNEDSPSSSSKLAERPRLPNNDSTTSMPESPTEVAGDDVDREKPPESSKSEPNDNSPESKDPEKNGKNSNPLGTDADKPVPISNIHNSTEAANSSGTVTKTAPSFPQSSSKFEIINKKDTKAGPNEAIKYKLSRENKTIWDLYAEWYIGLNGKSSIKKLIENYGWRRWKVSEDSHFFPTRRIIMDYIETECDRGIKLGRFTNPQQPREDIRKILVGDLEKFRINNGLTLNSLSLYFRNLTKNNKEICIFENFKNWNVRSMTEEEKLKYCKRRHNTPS
Description: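 Universal 'all 10-mer' protein binding microarrays (Agilent AMADID 015681) probed with GST-tagged S. cerevisiae TFs (full-length or DBD) made by in vitro transcription/translation (PURExpress), about 100-200 nM. Bound TF was detected with fluorescent anti-GST. Each ungapped 8-mer (which stands for itself and its reverse complement) is scored by the PBM enrichment score (E-score), a modified Wilcoxon-Mann-Whitney statistic from -0.5 to +0.5, computed with the Universal PBM Analysis Suite. Scale: above 0.35 generally sequence-specific binding.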

Sequence	PBM E-score
GCGTGGGA	-0.213
CCAAACAC	-0.104
AAAGCGAG	0.238
AAGACCTG	-0.116
CACCCCCA	-0.122
CGAAAGGA	-0.0964
AAAGCACG	0.0871
GCATTCTA	-0.0877
TGAATACA	0.199
AAAAGTCT	-0.222
AACGTAAC	-0.0742
CATCAAGA	0.0812
AGCATGGA	-0.232
AGCGACAG	-0.106
CAAAATAG	0.259
CCTATAAC	0.0176
CCGAGTAC	0.034
AGAGCATC	0.133
GGCGGCGA	0.0796
TACGGCGA	-0.00837
GTACAATA	-0.0357
CAGGGCAA	-0.124
AGTCAACA	0.116
GGGGGCAA	-0.121
ACTCCCTG	-0.156

Sequence	PBM E-score
CAGACCTC	-0.255
AAGTCGTA	-0.0401
ATATATCG	0.094
ATGCAGTC	-0.0604
ACAACAAT	-0.0494
GATCTCCC	-0.0795
GGCGCTCA	0.032
CTAACAGA	0.172
AGCTATTC	-0.136
ACTTGGCT	0.127
CACCCGAG	0.0333
AATAAATA	0.17
GGTGAAAA	0.0519
CGCAGAGA	-0.257
GCTAGTCA	0.108
AGCGACTC	-0.156
GTGGTGTA	-0.109
AGAAGCCG	0.399
CCCAAGAG	0.0633
AGGGCACC	0.13
TGAGTTAA	-0.314
AATAAAGG	0.217
AGCTCCTG	0.0278
ACAGATCT	-0.232
AAGGTCGC	0.0942

Sequence	PBM E-score
CTATTCAG	0.0145
AAGGCAAC	0.0785
ACGGGACA	-0.0161
CAGATTTA	0.0919
ACCGCCTC	-0.14
AAAGATAC	0.203
AATCACCC	-0.169
GCTGTAAC	-0.00592
AGAGGGGC	-0.044
ATGCCAGA	0.167
CGGGCGCC	0.421
AGTTGGCC	-0.15
GCTTCCAC	0.42
ACCAAACT	0.0265
ACCATGAA	0.0954
GTGCATAA	-0.0455
GTGGTCCA	0.109
ATATATCA	-0.112
GCCCAAGA	0.0111
AAGATCCT	0.0935
AATTGAGG	0.236
AGTAACTA	0.0992
CAAATAAG	0.115
ACACCCAC	0.0847
CCTCGGCC	-0.196

Sequence	PBM E-score
CGTTATAC	-0.0132
TTAAAGAA	0.126
CATCCGGC	-0.0247
TAAGGGAA	0.0495
CATTCAAC	-0.143
ATTAGATG	0.118
GAGACACA	-0.0726
AAAAACTA	0.133
ACTTCAAC	-0.0331
GTCGCCGA	0.24
AACCCGTC	-0.132
GCAGTAAC	-0.0527
ATACTCTA	-0.153
CAGTAATG	0.0898
TACCGCTA	0.0898
TAGCCGAA	0.0835
CGTGTGGA	0.0437
CTTAGTCC	-0.0337
TCACTAGA	0.0498
AGAACCGC	0.0903
AGACACTC	-0.168
GCGGATGA	-0.145
CTGATGAC	0.0532
ACCAATCT	0.0812
GTGGATCA	0.0278

Sequence	PBM E-score
ACACCTCC	-0.254
AGGCGTTG	-0.036
CATGAGAG	-0.119
ACCCTCGC	-0.0776
ATACAATA	-0.0401
AAAAAACG	0.0715
CAGATTCC	0.388
CGCTAATC	0.125
CCGTTAGC	0.146
AAGCAACT	-0.094
CTATCGCC	-0.00847
CGGTGATA	-0.0221
AACCTCCC	-0.123
GGAATTTA	0.0917
AGTAGTTG	0.245
CTGACCTC	-0.103
GTGAAAGA	0.0445
TACCGCGA	-0.0665
AAATCGTG	0.226
CAAGGAAG	0.143
GAGATACC	0.175
ATCCCTTG	-0.198
GTAGGGCA	-0.133
TGAGTGAA	-0.125
GATGTCCA	0.131

Sequence	PBM E-score
GCCGGACC	-0.114
CTTGTATC	0.0702
CACCTCAC	-0.132
ATCAGAAG	0.158
AGGCAGCG	0.0171
CTTTTACA	0.23
ACATGAGG	0.0641
CATTAGTC	-0.0348
ACCGTTGG	-0.0812
ACGGCGCA	-0.265
GGTGTAAC	-0.0231
CGAAAGAC	-0.0893
ACGGGGTC	-0.0236
ATTCAGCC	0.0229
ATCCCACA	0.0178
CCCACGGC	-0.111
ATGCACGG	-0.235
GAAAGAGC	-0.152
CCCAAACG	-0.0346
AGGGTCTA	-0.279
GAATATGA	0.164
GCAGGCCA	-0.185
AAATGACG	-0.0759
CGAGGTAG	-0.17
CTCAACGC	-0.113

Sequence	PBM E-score
AACCTGAG	0.0471
GCACCTCA	0.114
CATCTTAA	0.00345
CGCTTCAG	0.0898
GTCTACTA	0.125
ACAACGGC	-0.109
ATGATGAG	-0.104
CAGCACGC	-0.197
CGCACCCA	0.236
ACGTTATA	-0.056
CCAGGATA	0.00241
CATGCGGA	0.0299
AGTGCACC	-0.123
ACACACAG	-0.0596
AAGGCGGA	0.00504
GTAGTTGA	0.0635
CGTCGACG	-0.0825
AAGGGAGG	-0.112
AGTGCATC	-0.128
ACAACCCA	-0.0863
GGGCAGCA	0.142
CCGACCAA	-0.0956
